Measured values taken from PubChem BioAssay AID485281 (National Center for Advancing Translational Sciences (NCATS), 2010).
Out of some 350,000 compounds screened, about 260 (0.074%) were called active. Inconclusive results, whose numbers are uncertain, are shown with a selection of clear calls. The call rests on the fitted dose curve; in most records, active means well fitted inhibition curve with a large enough effect; inconclusive means small, poorly fitted or top-dose-only effect; inactive means no such curve, though single readings can be large or run the other way. Potencies of inconclusive entries are doubtful fits and often do not repeat.

molecular target: Ferritin light chain (Equus caballus) (UniProt P02791); experiment: qHTS Assay for Identification of Novel General Anesthetics; settings: apoferritin/1-aminoanthracene competitive binding, fluorescence; activity change, negative = displacement: at 77.5 µM (top of the series); further: nearly all actives have a fitted effect of over 20% in size
Sequence of UniProt P02791 (P02791 whole entry, looked up): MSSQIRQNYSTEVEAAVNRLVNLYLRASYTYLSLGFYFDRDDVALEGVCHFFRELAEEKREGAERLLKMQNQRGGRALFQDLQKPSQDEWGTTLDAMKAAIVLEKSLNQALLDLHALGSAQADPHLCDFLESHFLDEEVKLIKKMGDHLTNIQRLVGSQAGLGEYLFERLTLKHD
Summary of the method: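 Apoferritin-based anesthetic binding model; compound displacement of fluorescent 1-AMA measured as endpoint fluorescence after 10 minutes at room temperature, scaled to free-ligand and complex controls.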
On the % scale 0 is the no-effect control and ±100 the full control effect; potency means the concentration at half of the fitted maximal effect; tags describe the fitted curve by direction and shape.

Structure (SMILES)	Potency	activity change, negative = displacement
O=C1c2oc3ccccc3c(=O)c2C(c2cccc(Br)c2)N1Cc1ccco1 (stereo not drawn)	inconclusive: 28.2 µM [inhibitor, partial curve, poor fit]	–
CCOC(=O)c1cccc(NC(=O)CSc2nnc(COc3ccccc3)n2CC)c1	inconclusive: 25.1 µM [inhibitor, partial curve]	–
COc1ccc(OCCC(=O)OCC(=O)NC2CCCCCCC2)cc1	inconclusive: 50.1 µM [inhibitor, partial curve]	–
Cc1ccccc1C(=O)O/N=C(\N)Cc1cccs1	inconclusive: 31.6 µM [inhibitor, partial curve]	–
O=C(CCCN1C(=O)c2cccc3cccc(c23)C1=O)N1CCN(Cc2ccc3c(c2)OCO3)CC1	inconclusive: 39.8 µM [inhibitor, partial curve]	–
CC(C)=CCOc1ccc2ccc(=O)oc2c1	inconclusive: 15.8 µM [inhibitor, partial curve]	–
O=c1n(Cc2ccccc2)nc2n1-c1cc(Cl)ccc1OC2	inconclusive: 28.2 µM [inhibitor, partial curve]	–
Cc1cc(C)c(S(=O)(=O)NCC2CCC(C(=O)NCCc3ccccc3)CC2)c(C)c1 (stereo not drawn)	–	inactive: -0.796%
O=C(CN1CCCCCC1)Nc1ccc(Br)cc1Br	inconclusive: 28.2 µM [inhibitor, partial curve]	–
Cc1ccc(C(=O)c2c(NC(=O)c3ccccc3)sc(C)c2C)cc1	inconclusive: 7.94 µM [inhibitor, full curve, poor fit]	–
O=C(c1ccccc1)N1CCCCC(S(=O)(=O)c2ccc3ccccc3c2)C1=O (stereo not drawn)	inconclusive: 35.5 µM [inhibitor, partial curve]	–
O=c1[nH][nH]c2c(N=Cc3ccccc3O)ccc(F)c12	–	inactive: 5.94%
Cc1cc(S(=O)(=O)NCCc2ccccc2)c(C)s1	active: 8.91 µM	–
COCc1cc(=O)n2[nH]c(C)cc2n1	–	inactive: -7.41%
O=C(CSc1ccc(-c2ccc(F)cc2)nn1)N1CCCc2ccccc21	inconclusive: 56.2 µM [inhibitor, single point]	–
CC(Oc1ccccc1Cl)c1nnc(N)s1 (stereo not drawn)	inconclusive: 35.5 µM [inhibitor, partial curve]	–
CC1CCCCN1C(=S)Nc1ccc2nc3n(c(=O)c2c1)CCCCC3 (stereo not drawn)	–	inactive: -16.7%
COC(=O)CSc1nc2sc3c(c2c(=O)n1-c1ccccc1)C(C)CCC3 (stereo not drawn)	inconclusive: 39.8 µM [inhibitor, partial curve]	–
c1ccc2nc(-c3nccs3)ccc2c1	inconclusive: 31.6 µM [inhibitor, single point]	–
C#CCNC(=O)c1ccc(OCc2ccccc2)cc1Cl	inconclusive: 28.2 µM [inhibitor, partial curve]	–
COc1cc(C2c3c(-c4cc(C)ccc4O)n[nH]c3C(=O)N2Cc2ccco2)cc(OC)c1OC (stereo not drawn)	–	inactive: -7.97%
CCCc1nn2c(=O)cc(COC(=O)c3cccc(NC(=O)c4ccc(OCC)cc4)c3)nc2s1	–	inactive: -16.7%
COc1ccc(CCOC(=O)c2ccc(N)c([N+](=O)[O-])c2)cc1	inconclusive: 25.1 µM [inhibitor, partial curve]	–

Structure (SMILES)	Potency	activity change, negative = displacement
COc1ccc(NC(=O)CSc2nc3ccccc3n2CC(=O)N(C)C2CCCCC2)cc1	inconclusive: 12.6 µM [inhibitor, partial curve]	–
CCOc1ccccc1-c1n[nH]c(=S)o1	–	inactive: 1.1%
Cc1cc(C)n(-c2ccc(Cl)c(Cl)c2)n1	inconclusive: 17.8 µM [inhibitor, partial curve]	–
O=S(=O)(NCCNC/C=C/c1ccc(Br)cc1)c1cccc2cnccc12	inconclusive: 12.6 µM [inhibitor, partial curve]	–
CCOc1ccc(C(=O)CN2CCN(S(=O)(=O)c3ccc(Br)cc3)CC2)cc1	inconclusive: 22.4 µM [inhibitor, partial curve]	–
CC(C)c1cc(NC(=O)CSc2nnc(-c3ccccc3F)n2C)on1	inconclusive: 11.2 µM [inhibitor, full curve, poor fit]	–
CCN(CC)C(=O)C(=O)c1cn(CCOc2ccccc2)c2ccccc12	inconclusive: 28.2 µM [inhibitor, partial curve]	–
FC(F)(F)c1cccc(Nc2nc3nonc3nc2Nc2ccc(Cl)cc2)c1	inconclusive: 28.2 µM [inhibitor, partial curve]	–
Cc1ccccc1NC(=O)c1c(C)oc2ccc(O)c(CN3CCCCCC3)c12	–	inactive: 0.183%
O=C(Nc1ccc(OC(F)(F)F)cc1)c1[nH]ncc1[N+](=O)[O-]	inconclusive: 25.1 µM [inhibitor, partial curve]	–
CC1CCN(C(=O)CSCC(=O)Nc2nc(-c3cccs3)cs2)CC1	inconclusive: 25.1 µM [inhibitor, partial curve]	–
CC(C)(Cc1ccc(O)cc1)NC(=O)CC(=O)N=Nc1c(O)[nH]c2cc(Br)ccc12	inconclusive: 15.8 µM [inhibitor, partial curve]	–
O=C1Nc2ccccc2N(O)N1c1cc(-c2cccc(Cl)c2)no1	–	inactive: -17.1%
CC(C)c1ccc(C2CC(=O)N3CN(C4CCCCC4)CSC3=C2C#N)cc1 (stereo not drawn)	inconclusive: 28.2 µM [inhibitor, single point]	–
CCCCN(CCCC)CCCNC(=O)c1cc(-c2ccc(Cl)s2)nc2ccccc12	–	inactive: 2.61%
CC(C)Oc1cccc(C(=O)Nc2ccccc2N2CCOCC2)c1	inconclusive: 35.5 µM [inhibitor, partial curve]	–
COc1ccccc1C(=O)COC(=O)c1ccccc1O	inconclusive: 22.4 µM [inhibitor, partial curve]	–
CC1CCCC(NC(=O)CCC(=O)N2CCOc3ccccc32)C1C (stereo not drawn)	inconclusive: 22.4 µM [inhibitor, partial curve]	–
CCOC(=O)CSC1=NC(=O)/C(=C/c2ccc(OC)cc2)S1	–	inactive: -9.47%
CC(=O)NS(=O)(=O)c1ccc(NC(=O)c2cc(-c3cccs3)nc3ccccc23)cc1	–	inactive: 9.31%
CCCc1cc(=O)[nH]c(Nc2cc(Cl)cc(Cl)c2)n1	–	inactive: 8.68%
O=c1[nH]nc(CNc2ccc(C(F)(F)F)cc2)c2ccccc12	inconclusive: 44.7 µM [inhibitor, partial curve]	–
O=C(NCc1cccs1)c1cc(-c2ccncc2)nc2ccc(Br)cc12	inconclusive: 28.2 µM [inhibitor, partial curve]	–

Structure (SMILES)	Potency	activity change, negative = displacement
Cc1ccc(NC(=O)CCC(=O)NNC(=S)Nc2ccc(F)cc2F)cc1C	inconclusive: 31.6 µM [inhibitor, single point]	–
O=C(OCc1cc(=O)n2cc(Br)ccc2n1)C1COc2ccccc2O1 (stereo not drawn)	inconclusive: 20 µM [inhibitor, partial curve]	–
CCCn1c(SCC(=O)Nc2cccc(C(=O)OCC)c2)nnc1-c1ccoc1C	inconclusive: 28.2 µM [inhibitor, partial curve]	–
CCc1ccc(C(=O)COC(=O)C(Cc2ccccc2)NC(=O)c2ccc(Cl)cc2)cc1 (stereo not drawn)	inconclusive: 8.91 µM [inhibitor, partial curve]	–
O=C(CSc1nnc(SCc2ccccc2)s1)N/N=C/c1c[nH]c2ccccc12	inconclusive: 3.98 µM [inhibitor, full curve]	–
CCOC(=O)c1c(C)[nH]c(C)c1C(=O)COC(=O)/C=C/c1cccc(Cl)c1	inconclusive: 22.4 µM [inhibitor, partial curve]	–
COc1ccc(-c2coc3cc(O)cc(O)c3c2=O)cc1	inconclusive: 31.6 µM [inhibitor, partial curve]	–
CC(=O)OCCN(C)c1cc(SC(C)C)c2nonc2c1[N+](=O)[O-]	inconclusive: 31.6 µM [inhibitor, partial curve]	–
CCN(CC)C(=O)CSc1nc2c(sc(=S)n2Cc2ccco2)c(=O)n1-c1ccccc1	inconclusive: 12.6 µM [inhibitor, partial curve]	–
COc1ccc(C(=O)Nc2ccc(N3CCN(C)CC3)cc2)cc1	–	inactive: -3.73%
COc1ccc(NC(=O)C2CCC(N3C(=O)C4C5C=CC(C5)C4C3=O)CC2)cc1 (stereo not drawn)	inconclusive: 17.8 µM [inhibitor, partial curve]	–
CC1=C(c2ccc(C(C)C)cc2)S(=O)(=O)N=C1N1CCC(C(=O)NCc2ccc(C)o2)CC1	inconclusive: 17.8 µM [inhibitor, partial curve]	–
O=C(NC1CCCCC1)c1ccc(CSc2nc3cccnc3n2Cc2ccccc2)cc1	–	inactive: 2.63%
COc1ccc(C2=C(C)CC(C)(C)NC2=O)cc1OC	inconclusive: 25.1 µM [inhibitor, partial curve]	–
COc1cc(C2Nc3cc(Cl)c(S(N)(=O)=O)cc3S(=O)(=O)N2)ccc1OCc1ccccc1 (stereo not drawn)	inconclusive: 35.5 µM [inhibitor, partial curve]	–
Cc1cc(Cl)ccc1OCCCC(=O)NN	inconclusive: 31.6 µM [inhibitor, partial curve]	–
Cc1c(CC(=O)NCCc2ccccc2)c(=O)oc2c(C)c3occ(C(C)(C)C)c3cc12	inconclusive: 7.08 µM [inhibitor, full curve, poor fit]	–
Cc1cc(Nc2cc(Cl)ccc2C)n2nc(-c3ccccc3)nc2n1	inconclusive: 3.98 µM [inhibitor, single point]	–
CSc1cnc2c(=O)n(C)c(=O)[nH]c2n1	–	inactive: 203%
COCCNC(=O)CSc1nnc(-c2ccc(C)cc2)c(-c2ccc(C)cc2)n1	inconclusive: 35.5 µM [inhibitor, partial curve]	–
Cc1ccc(/C=N/NC(=O)CSc2nc3ccccc3o2)cc1	inconclusive: 56.2 µM [inhibitor, single point]	–
Cc1ccc(NC(=O)c2c(NC(=O)c3ccc(F)cc3)sc3c2CCCC3)cc1C	–	inactive: -6.87%
